Test results taken from PubChem BioAssay AID652104 (National Center for Advancing Translational Sciences (NCATS), 2013).
Several values for one entry are separate records, joined by “and”; a condition that tells them apart may be missing. Equal values may be shown once. The whole screen tested about 410,000 compounds, of which about 7,200 (1.8%) were called active. This list was built around the results that the source calls inconclusive (neither active nor inactive); the mix of calls is not that of the screen. Calls come from the whole dose curve; as a rule, active = well fitted activation curve with a large enough effect; inconclusive = small, poorly fitted or top-dose-only effect, or another doubt; inactive = no such curve, though single readings can be large or run the other way. A potency beside an inconclusive call is a rough fit, not a confirmed value.

test: qHTS of TDP-43 Inhibitors; conditions: TDP-43 expressing yeast growth rescue, BacTiter-Glo, 24 h; growth rescue (activation): at 46.1 µM (top of the series) unless noted; note: nearly all actives have a fitted effect of over 50% in size; for growth rescue (activation): % of control where 0% means no effect
In short: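 Yeast cells expressing TDP-43 under galactose induction are exposed to compounds for 24 hr at 30 deg C. BacTiter-Glo luminescence measures growth, so protective compounds score as activators.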
Potency is the fitted concentration of half-maximal effect; tags give direction and shape of the fitted curve.

Potency, inconclusive:
O=C(/C=C/c1ccccc1)N1CCN(c2ccc([N+](=O)[O-])c(N3CCOCC3)c2)CC1 28.2 µM [activator, single point]
Cc1cccc(Cc2c(C)nc3nc(SCC(=O)NCc4ccc(F)cc4)nn3c2C)c1 35.5 µM [activator, partial curve]
COC(=O)c1cccc(S(=O)(=O)N2CCC(n3nnc4cc(F)ccc43)CC2)c1 22.4 µM [activator, single point]
COc1cc2oc(=O)cc(CN3CCOCC3)c2cc1Cl 35.5 µM [activator, partial curve, poor fit]
COc1ccc(Cl)cc1N(C)C(=O)Cc1noc2ccc(C)cc12 8.91 µM [activator, partial curve]
Cc1nc2c(-c3ccc(F)cc3)c(C)nn2c(C)c1CCC(=O)N1CCN(c2ccc(F)cc2)CC1 35.5 µM [activator, single point] and 25.1 µM [activator, single point]
COc1ccc(S(=O)(=O)NCCCCOc2ccc(Cl)cc2)cc1 35.5 µM [activator, single point]
Cc1ccc(C(=O)C(C)OC(=O)Cc2c[nH]c3ccccc23)cc1 (configuration not stated) 11.2 µM [activator, partial curve]
Cc1cc2nn(-c3ccc(F)cc3)nc2cc1N 3.16 µM [activator, partial curve]
O=C(Nc1cc(S(=O)(=O)N2CCOCC2)ccc1OCC(F)(F)F)C1CCCC1 35.5 µM [activator, partial curve, poor fit]
CC(C)c1nnc(NC(=O)C2CCCCC2)s1 12.6 µM [activator, partial curve]
Cc1ccc(S(=O)(=O)NCCc2csc3nc(-c4ccccc4F)nn23)cc1C 12.6 µM [activator, partial curve]
COc1ccc(C(=O)NC(C)CCc2ccccc2)c(O)c1 (configuration not stated) 12.6 µM [activator, single point]
CCSc1cc(N2CCCC2)nc(-c2cccc(C)c2)n1 14.1 µM [activator, partial curve]
COC(=O)c1cc(COC(=O)c2cccnc2SC)oc1C 11.2 µM [activator, partial curve]
O=C(O)/C=C/C(=O)Nc1c(F)cccc1F 11.2 µM [activator, partial curve]
COc1ccccc1C(=O)COC(=O)C1(C)CC1(Cl)Cl (configuration not stated) 12.6 µM [activator, partial curve]
CC(Nc1nc(-c2ccc(F)cc2)cs1)c1nc2cc(Cl)c(Cl)cc2n1CCOCCO (configuration not stated) 10 µM [activator, partial curve]
Cc1cccc(-c2nsc(SCC(=O)NCc3ccco3)n2)c1 7.94 µM [activator, partial curve]
N/C(=N\OC(=O)c1ccccc1Cl)c1ccccc1 22.4 µM [activator, single point]
Cc1cccc(C)c1NC(=O)C(c1ccccc1)N1CCN(c2ccc(C(F)(F)F)cn2)CC1 (configuration not stated) 7.08 µM [activator, partial curve]
O=C(O)C1CCC(NSc2ccccc2[N+](=O)[O-])CC1 (configuration not stated) 12.6 µM [activator, single point]
COc1ccccc1-c1cc(C(=O)NCCc2ccccc2)no1 5.62 µM [activator, single point]
CC(C)CC(=O)N1CCN(S(=O)(=O)c2ccc3ccccc3c2)CC1 12.6 µM [activator, single point]
O=C1C(=Cc2ccccc2[N+](=O)[O-])Cc2ccccc21 3.98 µM [activator, full curve]
Cc1ccc(NC(=O)Cn2c(-c3nonc3N)nc3ccccc32)cc1C 1.26 µM [activator, partial curve]
COc1cc(-c2noc(C)c2C#Cc2ccc(N)cc2)cc(OC)c1OC 35.5 µM [activator, partial curve]
Cc1ccc(S(=O)(=O)NC(=O)C2(C)CCN2C(=O)C2(c3ccc(Cl)cc3)CC2)cc1 (configuration not stated) 22.4 µM [activator, single point]
COc1ccc(-c2nc3sc(CCNC(=O)C(=O)Nc4ccc(C)c(F)c4)c(C)n3n2)cc1 1.41 µM [activator, full curve, poor fit]
CC(NC(=O)c1cc2ccccc2o1)c1ccccc1 (configuration not stated) 11.2 µM [activator, partial curve]
COc1cc(CNc2ccc(O)cc2)cc(Br)c1OCc1ccccc1F 22.4 µM [activator, single point]
COC(=O)c1ccc(NC(=S)N2CCN(Cc3cccc(C)c3)CC2)cc1 17.8 µM [activator, single point]
O=C1CN(C(=O)COc2ccc(Cl)cc2)C(c2ccc(F)cc2)c2cc(Br)ccc2N1 (configuration not stated) 35.5 µM [activator, partial curve]
Cc1ccc(NC(=O)N2CCN(Cc3nc4ccc(C)cc4o3)CC2)c(Cl)c1 10 µM [activator, partial curve]
COc1ccc(C(=O)c2cc3cccc(OC)c3o2)cc1 15.8 µM [activator, partial curve]
COC(=O)[C@H]1C[C@H](C(=O)O)[C@@H](C)C1(C)C 5.62 µM [activator, partial curve]
CCCCNC(=O)c1sc(=S)n2c1[nH]c(=O)c1ccccc12 14.1 µM [activator, single point]
Cc1nc2ccccn2c1C(=O)CSc1ccc(Cl)cc1Cl 6.31 µM [activator, partial curve]
Cc1cc(Cl)ccc1OCC(=O)N1CCC(c2nc3ccccc3o2)CC1 35.5 µM [activator, single point]
Cc1oc(-c2ccccc2)cc1C(=O)Nc1cccc2ccccc12 11.2 µM [activator, single point]
CCOc1ccc(NC(=O)N2CCC(c3ccc(C)cc3)C2)cc1 (configuration not stated) 1.58 µM [activator, full curve]
CCN(CC(F)(F)C(F)F)S(=O)(=O)c1ccc(NC(=O)OC)cc1 25.1 µM [activator, single point]
CCOC(=O)c1ccc(NC(=O)COc2cccc3c(=O)n(C)ccc23)cc1 7.08 µM [activator, full curve, poor fit]
O=C(Nc1ccnn1C1CCN(C(=O)CCc2ccc(F)cc2)CC1)C1CCOC1 (configuration not stated) 3.16 µM [activator, full curve, poor fit]
Nc1c(Cl)cc(-c2csc(N3CCCC3c3nc4cc(Cl)c(N5CCCCC5)cc4n3CCCO)n2)cc1Cl (configuration not stated) 35.5 µM [activator, single point]
O=C(CSc1nnc2c(n1)[nH]c1ccc(F)cc12)NCc1ccc(F)cc1 0.316 µM [activator, full curve]
CCC(=O)OC1CSc2nc3ccccc3n2C1 (configuration not stated) 35.5 µM [activator, single point]
Cc1cc(C(=O)C(=O)N(C)C)c(C)n1-c1ccc(Cl)c(Cl)c1 15.8 µM [activator, partial curve]

Potency, active:
COc1cccc(NC(=O)COC(=O)c2nc(Cl)ccc2Cl)c1 15.8 µM
CCOC(=O)c1ccc2[nH]c3c(c2c1)CCCC3 25.1 µM
COc1ccc(O)c(/C=N/Nc2nc(Nc3ccccc3)nc(-n3nc(C)cc3C)n2)c1 22.4 µM
COc1ccccc1N1CCN(C(=O)c2ccc(-c3ccc(Cl)cc3)o2)CC1 15.8 µM
O=C(c1c[nH]c(C(=O)N2CCN(c3ccccc3F)CC2)c1)c1cccc(Cl)c1Cl 25.1 µM
CCC(C)C(=O)Nc1nnc(CCc2ccccc2)s1 (configuration not stated) 20 µM

Growth rescue (activation), inactive:
CC(C)c1cc(N2CCOCC2)n2ncc(-c3ccccc3)c2n1 10.4%
Cc1ccc(-c2cc3c(n2-c2ccc(F)cc2)CC(C)(C)CC3=O)cc1 8.04%
COc1ccccc1-c1nc(S(=O)(=O)c2ccccc2)c(N2CCC(C)CC2)o1 16.6%
O=S(=O)(Nc1cccc(F)c1)c1ccc2[nH]c3c(c2c1)CCCCC3 -83%
NS(=O)(=O)c1ccc(CNC(=O)c2ccc(Cl)c(S(=O)(=O)NCc3ccccc3)c2)cc1 7.59%
CCc1ccc(S(=O)(=O)c2cn(C)c3cc(F)c(F)cc3c2=O)cc1 19%
CCCCOc1ccc(C(=O)NCCc2ccccc2)cc1 15.4%
O=C(CNC(=O)c1ccccc1F)OCc1cc(=O)n2nc(C3CC3)sc2n1 0.928%
CCOC(=O)c1ccc(NC(=O)CSc2nc(-c3cccs3)cc(C(F)(F)F)c2C#N)cc1 11.3%
COc1ccc2ccccc2c1C1NC(=O)c2ccccc2N1 (configuration not stated) 17.4%
Cc1ccccc1NC(=O)CCNC(=O)Cn1ccc2ccccc2c1=O -1.12%
COc1ccccc1CNC(=O)CSCc1nc(-c2ccc(OC)c(OC)c2)oc1C 0%
COCCn1c(-c2ccc(NC(C)=O)cc2)nc2c1c(=O)[nH]c(=O)n2CC(C)C 3.95%
